Results from the supplement of paper PMC8728848.
The list shows a part of the results.

How the values were obtained:
Experiment in all cases: glycan array binding signal (z-score within array); higher = stronger binding
Conditions in all cases: glycan notation: IUPAC condensed, linker removed
[1] = molecular target: Neu5Ac(a2-6)Gal(b1-4)GlcNAc(b1-3)Gal(b1-4)GlcNAc(b1-3)GalNAc
How it was run: (§1)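 Glycan array binding is given as a within-array Z-score, which can be read as non-binding when negative. The arrays, 3228 of them, came from the Consortium for Functional Glycomics database and were retained only where the protein sequence was available. Z-scores were averaged across arrays of the same protein sequence at different concentrations or buffers and across linkers.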

[2] = molecular target: Neu5Ac(a2-6)Gal(b1-4)GlcNAc(b1-3)Gal(b1-4)GlcNAc(b1-3)[Neu5Ac(a2-6)Gal(b1-4)GlcNAc(b1-3)Gal(b1-4)GlcNAc(b1-6)]GalNAc
How it was run: as §1

[3] = molecular target: Neu5Ac(a2-6)Gal(b1-4)GlcNAc(b1-3)Gal(b1-4)GlcNAc(b1-6)[Gal(b1-3)]GalNAc
How it was run: as §1

[4] = molecular target: Neu5Ac(a2-6)Gal(b1-4)GlcNAc(b1-3)Gal(b1-4)[Fuc(a1-3)]GlcNAc(b1-3)Gal(b1-4)[Fuc(a1-3)]GlcNAc
How it was run: as §1

[5] = molecular target: Neu5Ac(a2-6)Gal(b1-4)GlcNAc(b1-3)GalNAc
How it was run: as §1

[6] = molecular target: Neu5Ac(a2-6)Gal(b1-4)GlcNAc(b1-3)[Neu5Ac(a2-6)Gal(b1-4)GlcNAc(b1-6)]GalNAc
How it was run: as §1

[7] = molecular target: Neu5Ac(a2-6)Gal(b1-4)GlcNAc(b1-6)GalNAc
How it was run: as §1

[8] = molecular target: Neu5Ac(a2-6)Gal(b1-4)GlcNAc(b1-6)[Gal(b1-3)GlcNAc(b1-3)]Gal(b1-4)Glc
How it was run: as §1

[9] = molecular target: Neu5Ac(a2-6)Gal(b1-4)GlcNAc(b1-6)[Gal(b1-3)]GalNAc
How it was run: as §1

[10] = molecular target: Neu5Ac(a2-6)Gal(b1-4)GlcNAc6S
How it was run: as §1

[11] = molecular target: Neu5Ac(a2-6)GalNAc
How it was run: as §1

[12] = molecular target: Neu5Ac(a2-6)GalNAc(b1-4)GlcNAc
How it was run: as §1

[13] = molecular target: Neu5Ac(a2-6)GalNAc(b1-4)GlcNAc6S
How it was run: as §1

[14] = molecular target: Neu5Ac(a2-6)GlcNAc(b1-4)GlcNAc
How it was run: as §1

[15] = molecular target: Neu5Ac(a2-6)GlcNAc(b1-4)GlcNAc(b1-4)GlcNAc
How it was run: as §1

[16] = molecular target: Neu5Ac(a2-8)Neu5Ac
How it was run: as §1

[17] = molecular target: Neu5Ac(a2-8)Neu5Ac(a2-3)Gal(b1-3)GalNAc(b1-4)[Neu5Ac(a2-3)]Gal(b1-4)Glc
How it was run: as §1

[18] = molecular target: Neu5Ac(a2-8)Neu5Ac(a2-3)Gal(b1-3)GalNAc(b1-4)[Neu5Ac(a2-8)Neu5Ac(a2-3)]Gal(b1-4)Glc
How it was run: as §1

[19] = molecular target: Neu5Ac(a2-8)Neu5Ac(a2-3)Gal(b1-4)Glc
How it was run: as §1

[20] = molecular target: Neu5Ac(a2-8)Neu5Ac(a2-3)Gal(b1-4)GlcNAc
How it was run: as §1

[21] = molecular target: Neu5Ac(a2-8)Neu5Ac(a2-3)[Gal(b1-3)GalNAc(b1-4)]Gal(b1-4)Glc
How it was run: as §1

[22] = molecular target: Neu5Ac(a2-8)Neu5Ac(a2-3)[GalNAc(b1-4)]Gal(b1-4)Glc
How it was run: as §1

[23] = molecular target: Neu5Ac(a2-8)Neu5Ac(a2-8)Neu5Ac
How it was run: as §1

[24] = molecular target: Neu5Ac(a2-8)Neu5Ac(a2-8)Neu5Ac(a2-3)Gal(b1-4)Glc
How it was run: as §1

[25] = molecular target: Neu5Ac(a2-8)Neu5Ac(a2-8)Neu5Ac(a2-3)[Gal(b1-3)GalNAc(b1-4)]Gal(b1-4)Glc
How it was run: as §1

[26] = molecular target: Neu5Ac(a2-8)Neu5Ac(a2-8)Neu5Ac(a2-3)[GalNAc(b1-4)]Gal(b1-4)Glc
How it was run: as §1

[27] = molecular target: Neu5Ac(a2-8)Neu5Ac(a2-8)Neu5Ac(a2-8)Neu5Ac(a2-3)[GalNAc(b1-4)]Gal(b1-4)Glc
How it was run: as §1

[28] = molecular target: Neu5Ac(a2-8)Neu5Gc(a2-3)Gal(b1-4)GlcNAc
How it was run: as §1

[29] = molecular target: Neu5Ac(b2-6)Gal(b1-4)GlcNAc
How it was run: as §1

[30] = molecular target: Neu5Ac(b2-6)GalNAc
How it was run: as §1

[31] = molecular target: Neu5Ac9Ac(a2-3)Gal(b1-3)GlcNAc
How it was run: as §1

[32] = molecular target: Neu5Ac9Ac(a2-3)Gal(b1-4)GlcNAc
How it was run: as §1

[33] = molecular target: Neu5Ac9Ac(a2-6)Gal(b1-4)GlcNAc
How it was run: as §1

[34] = molecular target: Neu5Gc(a2-3)Gal(b1-3)GlcNAc
How it was run: as §1

[35] = molecular target: Neu5Gc(a2-3)Gal(b1-3)[Fuc(a1-4)]GlcNAc
How it was run: as §1

[36] = molecular target: Neu5Gc(a2-3)Gal(b1-4)Glc
How it was run: as §1

[37] = molecular target: Neu5Gc(a2-3)Gal(b1-4)GlcNAc
How it was run: as §1

[38] = molecular target: Neu5Gc(a2-3)Gal(b1-4)GlcNAc(b1-3)Gal(b1-4)GlcNAc(b1-2)Man(a1-3)[Neu5Gc(a2-3)Gal(b1-4)GlcNAc(b1-3)Gal(b1-4)GlcNAc(b1-2)Man(a1-6)]Man(b1-4)GlcNAc(b1-4)GlcNAc
How it was run: as §1

[39] = molecular target: Neu5Gc(a2-3)Gal(b1-4)[Fuc(a1-3)]GlcNAc
How it was run: as §1

[40] = molecular target: Neu5Gc(a2-6)Gal(b1-4)GlcNAc
How it was run: as §1

[41] = molecular target: Neu5Gc(a2-6)GalNAc
How it was run: as §1

[42] = molecular target: Neu5Gc(a2-8)Neu5Ac(a2-3)Gal(b1-4)GlcNAc
How it was run: as §1

[43] = molecular target: Neu5Gc(a2-8)Neu5Gc(a2-3)Gal(b1-4)GlcNAc
How it was run: as §1

[44] = molecular target: Neu5Gc(a2-8)Neu5Gc(a2-3)Gal(b1-4)GlcNAc(b1-3)Gal(b1-4)GlcNAc
How it was run: as §1

[45] = molecular target: Neu5Gc(a2-8)Neu5Gc(a2-6)Gal(b1-4)GlcNAc
How it was run: as §1

[46] = molecular target: Neu5Gc(b2-6)Gal(b1-4)GlcNAc
How it was run: as §1

B1: Clec49 (Caenorhabditis elegans) (protein)
chain: MTRLTLLLFGLLGAATAQTCNTGGIYNEQFNRCYQYFTAPAQFSFAEQQCNLLGGHLASVQNGQENALLQSNAANSFKRSNYSDYWIGATDLETSGTWKWTDPSVTFDYSNWQLGEPQSGSDCAIQDKGDGTWSAIGCTSYRPYVCVTPVIMTATCPPITTPIPTTCPTPAPCPIKQCVPSCDQGWTYFSPTDFCYRVYHGEKFNDAEASCVLLGGHLASIHSLTENTFVNNIASCGIKEGKYEHLAWIGMRKVGQDWVWTDGTPSDYFNWAPKQPDNPKKELCVQTAPDLSHDKWYENWNNLECNEVMRAYICKKASIHN
glycan array binding signal (z-score) [1]: -0.163
glycan array binding signal (z-score) [2]: 2.58
glycan array binding signal (z-score) [3]: -0.105
glycan array binding signal (z-score) [4]: 0.181
glycan array binding signal (z-score) [5]: -0.179
glycan array binding signal (z-score) [6]: 0.359
glycan array binding signal (z-score) [7]: 0.441
glycan array binding signal (z-score) [8]: -0.304
glycan array binding signal (z-score) [9]: -0.327
glycan array binding signal (z-score) [10]: -0.845
glycan array binding signal (z-score) [11]: -0.418
glycan array binding signal (z-score) [12]: -0.566
glycan array binding signal (z-score) [13]: 0.538
glycan array binding signal (z-score) [14]: 0.25
glycan array binding signal (z-score) [15]: 0.16
glycan array binding signal (z-score) [16]: -0.576
glycan array binding signal (z-score) [17]: -0.084
glycan array binding signal (z-score) [18]: 0.324
glycan array binding signal (z-score) [19]: -0.326
glycan array binding signal (z-score) [20]: -0.339
glycan array binding signal (z-score) [21]: -0.06
glycan array binding signal (z-score) [22]: -0.424
glycan array binding signal (z-score) [23]: -0.48
glycan array binding signal (z-score) [24]: 0.106
glycan array binding signal (z-score) [25]: -0.077
glycan array binding signal (z-score) [26]: 0.055
glycan array binding signal (z-score) [27]: -0.218
glycan array binding signal (z-score) [28]: -0.059
glycan array binding signal (z-score) [29]: -0.552
glycan array binding signal (z-score) [30]: -0.483
glycan array binding signal (z-score) [31]: 0.178
glycan array binding signal (z-score) [32]: -0.776
glycan array binding signal (z-score) [33]: -0.201
glycan array binding signal (z-score) [34]: -0.463
glycan array binding signal (z-score) [35]: -0.422
glycan array binding signal (z-score) [36]: -0.481
glycan array binding signal (z-score) [37]: -0.612
glycan array binding signal (z-score) [38]: -0.103
glycan array binding signal (z-score) [39]: 0.229
glycan array binding signal (z-score) [40]: 0.43
glycan array binding signal (z-score) [41]: 0.335
glycan array binding signal (z-score) [42]: -0.378
glycan array binding signal (z-score) [43]: -0.037
glycan array binding signal (z-score) [44]: -0.895
glycan array binding signal (z-score) [45]: 0.405
glycan array binding signal (z-score) [46]: 0.241
